Data published in the supplement of paper PMC10126150.
Sequences with one replicate were seen in a single cluster, so their values are uncertain.

Tested on: ATP
Test: switch fluorescence ratio, 500 uM ATP over buffer (Cy3 cluster intensity, sum of 5 cycles each) (fold (ratio)); higher = stronger signal-on switching upon ATP binding; sequences stand for … in TCGTCGGCAGCGTCAGATGTGTATAAGAGACAGTTTTTTTTTTTTTTTTTTTTTTTTT…TC
Details: aptamer strand: ATP DNA aptamer (quencher-CACCTGGGGGAGTATTGCGGAGGAAGG + anchor), 100 nM annealed; ATP concentration: 500 uM; one replicate
Procedure, shortened: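 Cy3-labelled switching-strand clusters on a modified Illumina MiSeq flow-cell were annealed to 100 nM quencher-labelled ATP aptamer, imaged in selection buffer, then imaged after 15 min with 500 uM ATP at 22 °C. Five buffer/ATP cycles ran, with NaOH stripping and re-annealing between them. The fluorescence ratio is summed target-cycle over summed buffer-cycle Cy3 intensity per cluster, averaged per switch-domain sequence. Clusters outside 100-1000 RFU were excluded.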
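Note: ATP exposure 15 min at 22 °C before imaging.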

Sequence | switch fluorescence ratio
TTAGGGCCTC | 0.971
CCTAGTTCCT | 1.03
TTCCATAGCA | 1.39
CGTATATG | 1.05
ACGTGCGACT | 1.02
CGTCTTTCGT | 1.02
GGGTTGGTAA | 0.962
GTATGTGTGT | 0.996
CTGGTGCAAC | 1.13
AAGAATTGC | 0.999
AGTCAGCCTA | 1.04
AACGTGTCGG | 0.964
TGCGTATAAG | 0.98
TACAGTTTTT | 0.958
CGATGCTCGG | 0.955
CCTGTAGCGG | 1.34
TTTTGAATG | 1.07
GAAACTCGGC | 1.17
TCTTTTAATA | 0.984
TGACAGGTTA | 0.945
CTGCGATCGA | 1.05
AGTAGTGCG | 1
GGTAGAATCA | 1.01

Sequence | switch fluorescence ratio
TCGACTAGCG | 1.04
GAACCTCTCT | 1.08
ACATCGCGGG | 1.01
CAGCGGCAGA | 1.02
CTCAGATAT | 1.02
TAAAAAAGCG | 1.01
ACGAGATTAG | 1.02
CGTCCTAGAC | 1.2
GCGTCGATTT | 1.02
TGCATGGGGA | 1.17
ATCGAGGGC | 1.11
TCAGCCCCGC | 1.02
TTCATCCAGG | 2.21
ACATTCGTTT | 0.998
AACTCTGTA | 0.971
CATTGACTCT | 0.971
ATCTATGG | 0.995
TTTTGAGAAC | 1.01
CGCTTATCCC | 1.45
CATCGGGCCA | 1.02
TTTAAGCCTT | 1.15
GACTATTTCT | 1
CCTCCGCTAG | 1.12

Sequence | switch fluorescence ratio
ATATTATTGG | 1.02
CTGACTTGGT | 1.02
AACGAATAGT | 0.995
CATCGCGAGA | 1.09
TGGCCTTGGC | 0.987
TTATGGGCCG | 0.978
GTCCTTTTAT | 1.02
CCTAGTGCAG | 1.11
CAATACTAGA | 1.02
CATGAATAGG | 1.03
TGTCTGGGAC | 1
GGTTCGCCG | 1.02
CCTGGAAATG | 1.14
CCTAATCCGG | 1.09
AAGTGTGCGT | 0.967
CGTATCGGTT | 0.939
AACAGTTGGA | 1
CGAGGTTTGC | 1.01
GGCTCTATTG | 0.963
CGCGGGTCAC | 1.1
ATTTCTATA | 1.04
TGGCGGCATT | 1.01
TGCAGGAGAG | 1.03

Sequence | switch fluorescence ratio
GGACACCATA | 1.04
GTATGCTCTG | 1.03
GGTAGATCTG | 0.958
TCTACAAACG | 1.39
CAGTCGTTAG | 1.01
AGCCTAGTTG | 0.995
GAGGAGGT | 0.934
CTTGGGCTCG | 1
TGCTTAGTCG | 1.06
TCGTCGATGA | 1.03
GCCAGGGTCG | 1.02
GGCCGCTAGG | 1.01
AGAATTCAAT | 1.02
GGCCTTGTCA | 1.03
GTTTGCGATC | 1.11
CGTAGTATCA | 0.998
TGCGTGGTAT | 0.992
AAAGCGAGAT | 0.956
AGCGGTAAAC | 1.05
CAAGAAGGGA | 1.01
GGCACCGTTC | 1.06
GTGAGGGACA | 0.977
GAGTACGTCG | 0.988

Sequence | switch fluorescence ratio
TTACTCAGGA | 1.1
TTAACTGCAG | 0.991
CAGCGATTCG | 0.999
GATAGCGAGA | 1.03
ACTTCGGGTC | 1.03
GTGGAAGTAG | 1
GTATGCATGA | 1
GTCCTAGTAA | 1.04
GGTACCCGGA | 1.01
GATCTGTTAT | 0.989
GAAATCGGGA | 1.05
GGCATTTCAA | 1.01
GGGGATTGAC | 1.12
TTGTGTGAAA | 0.967
GGAATGACCT | 0.971
ATACCCACTT | 1.31
CTGGCACCAA | 1.02
CGGGTGTACG | 1.03
CTTTTCTGAA | 1.01
CCGCTGTTCT | 1.63
AACGCCGATT | 0.968
GGGTATTG | 0.963
ATCTTAGTAT | 0.99

Sequence | switch fluorescence ratio
ACGTTATTAG | 1.08
CCTGTCTAGA | 0.971
TATGTCAGCA | 0.984
AAGGTTTCAC | 0.982
CACTGGGCAG | 0.96
GATCACGTGG | 0.942
GATAGGAGGT | 0.994
AGTGTTCAAC | 0.965
TTGGTACCGG | 1.01
CCAGTAAGA | 0.975
CGGTAGGTCG | 0.939
TGGGACCATC | 0.959
AGTAGGAGTG | 0.983
TATCAATTAC | 1.11
CGGCGTTTGG | 0.99
CGGCCGAACG | 0.987
GGCCGTAGAG | 1
TTGTTT | 1
CTGTATGTTT | 0.995
GACAGTAAAA | 1.09
TTTCAAGACG | 1.07
CGGACACTAT | 1.06
TTCTGATAC | 1.07

Sequence | switch fluorescence ratio
GGAGGCGCCA | 0.977
ATGTCGAGGG | 1
TGTTGGACCT | 1.22
CCGAGCTG | 2.09
TTTGTCTGAG | 0.971
CGAGCGAATT | 1.06
AGTCATTGCC | 1.04
TCTGGCCTCA | 1.05
CAGTGTAAAC | 0.996
GCAAGAGGGA | 1
ACAGAGATCG | 0.997
CCTCGAGATT | 1.36
TTAACATACC | 0.985
CGTGTTGCAG | 1.09
TAGAGAGAAG | 1.02
TGGTCGTTGA | 1.01
GATGAATAAT | 0.994
TCCCACTCGC | 1.14
AGGATGGTT | 0.965
GGTGTAGTCA | 1.02
